Results published in PubChem BioAssay AID1671194 (National Center for Advancing Translational Sciences (NCATS), 2021).
About 240 (0.17%) of roughly 140,000 compounds were called active. The shares of active, inactive and inconclusive entries below differ from those in the screen. Calls come from the whole dose curve; as a rule, active = well fitted inhibition curve with a large enough effect; inconclusive = small, poorly fitted or top-dose-only effect; inactive = no such curve, though single readings can be large or run the other way. Where the call is inconclusive, the potency comes from a doubtful curve fit.

Experiment: Primary qHTS assay for inhibitors of alpha-synuclein gene (SNCA) expression; note: nearly all actives have a fitted effect of over 45% in size
Conditions: HEK-293 SNCA-luciferase knock-in, luminescence, 24 h; series mostly up to 57.2 µM
Potency is the fitted concentration of half-maximal effect; tags give direction and shape of the fitted curve.

Potency, inactive:
O=C(NCc1ccccc1Cl)c1nc2sccn2c1-c1ccc(C(F)(F)F)cc1
COc1ncccc1Nc1cnc2ccc(-c3ccc(F)cc3)nn12
c1ccc(-c2nc(-c3ccc(OC4CNC4)cc3)no2)cc1
O=C(NC1CCCCCC1)C1CCCN(c2ccnc3ccnn23)C1 (stereo unspecified)
COc1cccc(-c2cc(C(=O)N3CCC(Cn4cccn4)CC3)[nH]n2)c1
Cc1nonc1CC(=O)N1CCC(O)(CN2CCOCC2)C(C)(C)C1 (stereo unspecified)
CN(C)C[C@@H]1CN(Cc2cccnc2)C[C@H]1NC(=O)c1ccc2c(c1)OCO2
Cc1ccc(C(=O)N2CCCC3(C2)NC(=O)N(Cc2cccc(Cl)c2)C3=O)cc1F (stereo unspecified)
COc1ncccc1N1CC2(COCC(=O)N(Cc3cccc(OC(F)(F)F)c3)C2)C1
Cc1noc(C)c1-c1cc(-c2ccc([S+](C)(=O)[O-])cc2)cn2cncc12
CNc1nc2c(c(C(=O)N3CCCC3)n1)CN(C(=O)Cn1nccc1C)CC2
CCOc1ccc(CNC(=O)C2CCCN(c3nn4cc(-c5ccc(F)cc5)nc4s3)C2)cc1 (stereo unspecified)
COc1ccc(CCNC(=O)c2cn3cc(-c4ccccc4)sc3n2)cc1
CCCCNC(=O)c1ccc2c(c1)N(C(=O)c1ccc(F)cc1)CC2

Potency, inconclusive:
CNC(=O)[C@@H]1CN(C(=O)c2cc(C)[nH]n2)C[C@H]1C1CCN(C)CC1 31.6 µM [inhibitor, single point]
O=C(Nc1ccc(Cl)cc1)c1nc2c(o1)CCN(Cc1ccc(F)cc1F)CC2 35.5 µM [inhibitor, single point]
CCc1nc2ccc(C(=O)NCCc3ccc(OC)cc3OC)cc2nc1CC 39.8 µM [inhibitor, single point]
Cc1cnc(NC(=O)Nc2cc(Br)c(C)cc2OC[C@@H]2CNCCO2)cn1 3.04 µM [inhibitor, full curve, poor fit]
COc1ccc(-c2noc([C@@H]3CCCN3C(=O)C3CCN(C(=O)c4ccccc4)CC3)n2)cc1 2.82 µM [inhibitor, single point]
O=c1cnc2cnc(Oc3ccccc3)nc2n1C[C@H]1CCCO1 10 µM [inhibitor, partial curve]
O[C@@H]1CC(CNCc2cccc(Cl)c2)(COc2ccccc2)C[C@@H]1O (stereo partly specified) 11.2 µM [inhibitor, partial curve]
Cc1noc2c(-c3ccc(N4CCOCC4)cc3)cc(-c3cccs3)nc12 56.2 µM [inhibitor, single point]
COc1ccc(N2CCN(c3nc4ccccc4n4c(C)nnc34)CC2)cc1 4.47 µM [inhibitor, partial curve, poor fit]
CCOC(=O)CC(NS(=O)(=O)c1cc(-c2cc(C)no2)ccc1C)c1ccc(C)cc1 (stereo unspecified) 11.2 µM [inhibitor, partial curve, poor fit]
CCOc1ccc(C(=O)Nc2ccc3nc4c(c(Nc5ccccc5OC)c3c2)CCCC4)cc1 11.2 µM [inhibitor, single point]
O=C(N[C@H]1CO[C@H]2[C@@H]1OC[C@@H]2n1nnnc1Oc1ccccc1)c1ccc(C(F)(F)F)cc1 17.8 µM [inhibitor, single point]
O=C(CC[C@@H]1CNC(=O)[C@@H]2C[C@H](NCc3ccc(CO)o3)CN12)NCc1ccc(F)cc1 39.8 µM [inhibitor, single point]
O=C(NCc1ccc(Cl)cc1)c1cnc(N2CCOCC2)c2ccccc12 7.08 µM [inhibitor, single point]
CCCOCc1cc(CN2CCN(c3ccccc3OC)CC2)c(O)c2ncccc12 1.78 µM [inhibitor, full curve, poor fit]
CCC[C@H](NC(=O)C(C#N)=Cc1cccc(Br)n1)c1ccccc1 27.1 µM [inhibitor, partial curve, poor fit]
COc1ccc(NC(=O)O[C@@H]2CO[C@H]3[C@@H]2OC[C@@H]3NC(=O)Nc2cccc(C(F)(F)F)c2)cc1 39.8 µM [inhibitor, single point]
COc1ccc(Cn2c(SCc3ccc(C(=O)NCc4cccs4)cc3)nc3ccncc32)cc1 7.08 µM [inhibitor, single point]
Cc1ccc(C2Cn3nnc(C(=O)N4CCN(C(=O)c5c(F)cccc5F)CC4)c3CO2)cc1 (stereo unspecified) 8.91 µM [inhibitor, single point]
CCC1Oc2ccc(NC(=O)Nc3cccc(OC)c3)cc2CN(Cc2ccc3c(c2)OCO3)C1=O (stereo unspecified) 20 µM [inhibitor, partial curve, poor fit]
COc1cc(OC)c(NC(=O)C(C)n2nc(-c3ccc(C)cc3)c3c(c2=O)CCCC3)cc1Cl (stereo unspecified) 44.7 µM [inhibitor, single point]
CCOC(=O)CC(NC(=O)CCc1c(C)nc2cc(-c3ccccc3)nn2c1C)c1ccc(C)cc1 (stereo unspecified) 14.1 µM [inhibitor, partial curve, poor fit]
O=C(Nc1cccc(C(F)(F)F)c1)N1CCC(n2cnnc2C2CC2)C1 (stereo unspecified) 31.6 µM [inhibitor, single point]
CCOCCOC1CCN(S(=O)(=O)c2ccccc2)CC1 8.91 µM [inhibitor, single point]
COc1ccc(Nc2ccnc(N3CCC(NC(=O)NC4CCCC4)CC3)n2)cc1 7.08 µM [inhibitor, single point]
CCc1ccc(OCc2ccccc2C(=O)Nc2ccc3nc(C)cc(N)c3c2)cc1 42.9 µM [inhibitor, single point]
COc1cccc(C(=O)NC2CCN(c3ccnc4ccnn34)CC2)c1 8.91 µM [inhibitor, single point]
CCC(=O)N1CCCc2cc(S(=O)(=O)N3CCC(C(=O)Nc4ccc(C#N)cc4)CC3)ccc21 5.62 µM [inhibitor, full curve, poor fit]
CCOC(=O)c1cc(S(=O)(=O)NCc2ccc(OC)cc2)[nH]n1 11.2 µM [inhibitor, partial curve, poor fit]
CC(=O)c1cccc(NC(=O)Cn2cc(C(=O)c3cccc(Cl)c3)c(=O)c3ccc(C)nc32)c1 3.98 µM [inhibitor, full curve]
COc1cccc(C(=O)N[C@@H]2CN(S(C)(=O)=O)C[C@H]2CN(C)C)c1C 3.55 µM [inhibitor, full curve]
O=C(CCNS(=O)(=O)c1ccc2c(c1)CCN2C(=O)C1CC1)N1CCN(c2cccc(C(F)(F)F)c2)CC1 17.8 µM [inhibitor, single point]
CN(c1ncccc1CNc1nc(Nc2ccc3c(c2)CC(=O)N3)ncc1C(F)(F)F)S(C)(=O)=O 38.3 µM [inhibitor, single point]
COCc1cc(CNC(=O)CC2C(=O)NCCN2Cc2ccccc2)[nH]n1 (stereo unspecified) 39.8 µM [inhibitor, single point]
Cc1ccc(CNC(=O)CCc2nc3cccnc3n2Cc2ccccc2)cc1 2.82 µM [inhibitor, single point]
COc1ccc2c(c1)CC(C(=O)NCCc1ccc(S(N)(=O)=O)cc1)CO2 (stereo unspecified) 2.82 µM [inhibitor, single point]
COc1cc2ccccc2cc1C(=O)N1CCN(c2nc3c(F)cc(F)cc3s2)CC1 6.31 µM [inhibitor, full curve, poor fit]
COc1ccccc1N1CCN(C(=O)c2cc3c(-c4ccccc4F)nn(C)c3s2)CC1 25.1 µM [inhibitor, single point]
c1ccc(-c2[nH]nc3ncc(-c4cn[nH]c4)nc23)cc1 3.16 µM [inhibitor, partial curve, poor fit]
Cc1csc(NC(=O)c2nc3c(o2)CCN(CCCc2ccccc2)CC3)n1 7.94 µM [inhibitor, single point]
O=C([C@@H]1C[C@H](F)CN1S(=O)(=O)Cc1ccc(Cl)cc1)N1CCc2ccccc2C1 14.1 µM [inhibitor, partial curve, poor fit]
Cc1cc(C)n(CCCNC(=O)c2cccc(C3CCNC3)c2)n1 (stereo unspecified) 3.98 µM [inhibitor, full curve, poor fit]
Cc1ccc(C(=O)NCC(=O)N2CCCCCCNC(=O)CC2c2ccccc2)s1 (stereo unspecified) 1.58 µM [inhibitor, partial curve, poor fit]
COc1ccc(C(=O)N(c2ccc(C)cc2)S(=O)(=O)c2ccc(C)cc2)cc1 1.12 µM [inhibitor, full curve, poor fit]
COc1ccc(Cl)cc1NC(=O)C1CCN(S(=O)(=O)c2ccc(F)cc2)CC1 39.8 µM [inhibitor, single point]
Cc1ccc(N2C(=O)CCSC23C(=O)N(Cc2ccc(F)cc2)c2ccccc23)cc1 (stereo unspecified) 31.6 µM [inhibitor, single point]
COc1cccc(NC(=O)C2(C)CCCc3cnc(N(C)C)nc32)c1 (stereo unspecified) 39.8 µM [inhibitor, single point]
